Data on 97 variants can be found in a collection of fitness landscapes (doi:10.1016/j.celrep.2020.107928).

The full ranking holds about 81,000 sequences; the median of “one-hybrid fitness for binding NBS DNA” is about -0.1, and the highest 2% start at about 0.36. Some of the results follow.

B1: Caulobacter ParB omega fusion; a variant is named by its letters at X, in order, B8GW30 (parent)
chain: MESVVVGEPGMSEGRRGLGRGLSALLGEVDAAPAQAPGEQLGGSREAPIEILQRNPDQPRRTFREEDLEDLSNSIREKGVLQPILVRPSPDTAGEYQIVAGERAWRAAQRAGLKTVPIMVRELDDLAVLEIGIIENVQRADLNVLEEALSYKVLMEKFERTQENIAQTIGKSXSHVANXMRLLXLPDEVQSYLVSGELTAXHARAIAAAADPVALAKQIIEGGLSVRETEALARKAPNLSAGKSKGGRPPRVKDTDTQALESDLSSVLGLDVSIDHRGSTGTLTITYATLEQLDDLCNRLTRGI

The experiment covers variants of B1. In words: one-hybrid fitness for binding NBS DNA (the Noc-binding site; scaled: cognate 1, non-cognate 0); higher = stronger binding. Particulars: with NBS DNA site. The essentials:
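Fitness here means the log change in variant-to-wild-type read ratio between plasmids sequenced before and after selection. That scale was set so cognate equals 1 and non-cognate equals 0. The selection was a bacterial one-hybrid screen of Caulobacter ParB libraries, four specificity codons randomised, in E. coli USO carrying a HIS3 reporter with the site 19 bp from the promoter, grown 48 hours at 37°C on M9-minus-histidine with 0.1 mM IPTG and 5 mM 3-AT.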
As for RDFM, the “one-hybrid fitness for binding NBS DNA” value is at most 0.2. Turning to DPAY, the “one-hybrid fitness for binding NBS DNA” value was at most 0.2.

For the variant INDS, the “one-hybrid fitness for binding NBS DNA” value is at most 0.2. With FVFS, the “one-hybrid fitness for binding NBS DNA” value is at most 0.2. For QDGW, the “one-hybrid fitness for binding NBS DNA” value was at most 0.2. Then PDET, with at most 0.2. Then FCTF, with at most 0.2; and FEGA, with at most 0.2; and LDVM, with 0.291. Then RYSG, with at most 0.2. For LGQF, the “one-hybrid fitness for binding NBS DNA” value is at most 0.2.

FVDG: the “one-hybrid fitness for binding NBS DNA” value is at most 0.2.

On to SFYC, for which the “one-hybrid fitness for binding NBS DNA” value is at most 0.2.

As to FLGE, the “one-hybrid fitness for binding NBS DNA” value is at most 0.2.

In the case of HICV, the “one-hybrid fitness for binding NBS DNA” value is at most 0.2. Then KKLM, with at most 0.2.

Turning to KENL, the “one-hybrid fitness for binding NBS DNA” value is at most 0.2. As for VSSN, the “one-hybrid fitness for binding NBS DNA” value is at most 0.2. As for HLMF, the figure is at most 0.2. As for YRWL, the figure is at most 0.2; as for QGQF, at most 0.2; as for YPNT, 0.227. Then SANA, with at most 0.2. Take VHTQ: the “one-hybrid fitness for binding NBS DNA” value was at most 0.2. As for FFHR, the figure is at most 0.2. As for MSQS, the figure is at most 0.2. On to TYAT, for which the “one-hybrid fitness for binding NBS DNA” value is at most 0.2. In the case of ITHC, the “one-hybrid fitness for binding NBS DNA” value is at most 0.2. Consider VYSS, for which the “one-hybrid fitness for binding NBS DNA” value was at most 0.2.

Regarding VEQS, the “one-hybrid fitness for binding NBS DNA” value is at most 0.2. On to GNQA, for which the “one-hybrid fitness for binding NBS DNA” value was at most 0.2. Then DLYC, with at most 0.2; and LGWV, with at most 0.2. Consider ERHP, for which the “one-hybrid fitness for binding NBS DNA” value is at most 0.2. Then PPIS, with at most 0.2; and RRDE, with at most 0.2; and GAYD, with at most 0.2. As for VSNE, the “one-hybrid fitness for binding NBS DNA” value is at most 0.2. Then SACL, with at most 0.2. For the variant FFKL, the “one-hybrid fitness for binding NBS DNA” value was at most 0.2. For ITLN, the “one-hybrid fitness for binding NBS DNA” value was at most 0.2. As for LLFT, the figure is at most 0.2. With FSVM, the “one-hybrid fitness for binding NBS DNA” value is at most 0.2. As for HSCG, the figure is at most 0.2. Then ETYC, with at most 0.2.

On to LNNY, for which the “one-hybrid fitness for binding NBS DNA” value is at most 0.2.

TPDG: the “one-hybrid fitness for binding NBS DNA” value is at most 0.2. As for NNST, the figure is at most 0.2; as for VLTD, at most 0.2. Then ILHG, with at most 0.2; and PYLE, with at most 0.2; and KTIA, with at most 0.2. As for GLHF, the figure is at most 0.2. In the case of LPQT, the “one-hybrid fitness for binding NBS DNA” value is at most 0.2.

Take GRPF: the “one-hybrid fitness for binding NBS DNA” value is at most 0.2.

Consider RGYF, for which the “one-hybrid fitness for binding NBS DNA” value was at most 0.2.

Consider RYWF, for which the “one-hybrid fitness for binding NBS DNA” value was at most 0.2.

For NVSW, the “one-hybrid fitness for binding NBS DNA” value is at most 0.2. As to RYNW, the “one-hybrid fitness for binding NBS DNA” value was at most 0.2. As for TEHM, the figure is at most 0.2. EQLR: the “one-hybrid fitness for binding NBS DNA” value was at most 0.2. Then RTIA, with at most 0.2; and DVRW, with at most 0.2. As for PYWC, the figure is at most 0.2. On to MVIR, for which the “one-hybrid fitness for binding NBS DNA” value was at most 0.2. Then FRHG, with at most 0.2; and DFST, with at most 0.2; and HEKH, with at most 0.2. Consider CKNG, for which the “one-hybrid fitness for binding NBS DNA” value is at most 0.2. Regarding YINY, the “one-hybrid fitness for binding NBS DNA” value was at most 0.2. As for TARN, the figure is at most 0.2.

In the case of ASEK, the “one-hybrid fitness for binding NBS DNA” value is at most 0.2. Regarding QHFL, the “one-hybrid fitness for binding NBS DNA” value was at most 0.2. Then SYNS, with at most 0.2. Then ASRR, with at most 0.2; and RAFN, with at most 0.2. As to LCTE, the “one-hybrid fitness for binding NBS DNA” value was at most 0.2. As for VAQA, the figure is at most 0.2; as for AAHG, at most 0.2; as for KALK, at most 0.2.

With GLDY, the “one-hybrid fitness for binding NBS DNA” value is at most 0.2. As for RFNW, the figure is at most 0.2; as for WQLV, at most 0.2. As to ALIN, the “one-hybrid fitness for binding NBS DNA” value was at most 0.2. Then QDQA, with at most 0.2; and YLDC, with at most 0.2; and SWLL, with at most 0.2. Take PFGL: the “one-hybrid fitness for binding NBS DNA” value is at most 0.2. In the case of YYCY, the “one-hybrid fitness for binding NBS DNA” value was at most 0.2. Then MDRR, with at most 0.2; and PQAQ, with at most 0.2. As to MGRR, the “one-hybrid fitness for binding NBS DNA” value was at most 0.2. As to RFKP, the “one-hybrid fitness for binding NBS DNA” value was at most 0.2. Then QRTM, with 0.414; and LQEG, with at most 0.2. With KVAG, the “one-hybrid fitness for binding NBS DNA” value was at most 0.2.

For DTVC, the “one-hybrid fitness for binding NBS DNA” value is at most 0.2.
